# Test results published in the supplement of paper PMC8728848.
# Some of the results follow.
# B1: SJA (Sophora japonica) (protein)
# chain: FLGLFNSGGYSSSYQIVAVEFDTYINEWDPKTRHIGIDINSINSTKTVTWGWENGEVAIVLISYKAATETLTVSLTYPSSQTSYILSAAVDLKSILPEWVRIGF
# Tests used:
# Test in all cases: glycan array binding signal (z-score within array); higher = stronger binding
# Conditions in all cases: glycan notation: IUPAC condensed, linker removed
# [1] = target: Neu5Ac(a2-3)Gal(b1-3)[Neu5Ac(a2-3)Gal(b1-4)]GlcNAc
# Summary of the method: (§1)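 The binding signal is a Z-score computed within each array. Data were drawn from 3228 arrays in the Consortium for Functional Glycomics database, restricted to those with a known protein sequence. Scores were averaged over arrays of the same protein sequence at different concentrations or buffers, and over linkers, and negative values can be taken as non-binding.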
# [2] = target: Neu5Ac(a2-3)Gal(b1-3)[Neu5Ac(a2-6)]GalNAc
# Summary of the method: as §1
# [3] = target: Neu5Ac(a2-3)Gal(b1-3)[Neu5Ac(a2-6)]GlcNAc(b1-3)[Fuc(a1-3)[Gal(b1-4)]GlcNAc(b1-6)]Gal(b1-4)Glc
# Summary of the method: as §1
# [4] = target: Neu5Ac(a2-3)Gal(b1-3)]Neu5Ac(a2-3)Gal(b1-4)]GlcNAc
# Summary of the method: as §1
# [5] = target: Neu5Ac(a2-3)Gal(b1-4)Glc
# Summary of the method: as §1
# [6] = target: Neu5Ac(a2-3)Gal(b1-4)GlcNAc
# Summary of the method: as §1
# [7] = target: Neu5Ac(a2-3)Gal(b1-4)GlcNAc(b1-2)Man
# Summary of the method: as §1
# [8] = target: Neu5Ac(a2-3)Gal(b1-4)GlcNAc(b1-2)Man(a1-3)[GlcNAc(b1-4)][Neu5Ac(a2-3)Gal(b1-4)GlcNAc(b1-2)Man(a1-6)]Man(b1-4)GlcNAc(b1-4)GlcNAc
# Summary of the method: as §1
# [9] = target: Neu5Ac(a2-3)Gal(b1-4)GlcNAc(b1-2)Man(a1-3)[Neu5Ac(a2-3)Gal(b1-4)GlcNAc(b1-2)Man(a1-6)]Man(b1-4)GlcNAc(b1-4)GlcNAc
# Summary of the method: as §1
# [10] = target: Neu5Ac(a2-3)Gal(b1-4)GlcNAc(b1-2)Man(a1-3)[Neu5Ac(a2-3)Gal(b1-4)GlcNAc(b1-2)Man(a1-6)]Man(b1-4)GlcNAc(b1-4)[Fuc(a1-6)]GlcNAc
# Summary of the method: as §1
# [11] = target: Neu5Ac(a2-3)Gal(b1-4)GlcNAc(b1-2)Man(a1-3)[Neu5Ac(a2-6)Gal(b1-4)GlcNAc(b1-2)Man(a1-6)]Man(b1-4)GlcNAc(b1-4)GlcNAc
# Summary of the method: as §1
# [12] = target: Neu5Ac(a2-3)Gal(b1-4)GlcNAc(b1-2)[Neu5Ac(a2-3)Gal(b1-4)GlcNAc(b1-4)]Man(a1-3)[GlcNAc(b1-4)][Neu5Ac(a2-3)Gal(b1-4)GlcNAc(b1-2)[Neu5Ac(a2-3)Gal(b1-4)GlcNAc(b1-6)]Man(a1-6)]Man(b1-4)GlcNAc(b1-4)GlcNAc
# Summary of the method: as §1
# [13] = target: Neu5Ac(a2-3)Gal(b1-4)GlcNAc(b1-2)[Neu5Ac(a2-3)Gal(b1-4)GlcNAc(b1-4)]Man(a1-3)[GlcNAc(b1-4)][Neu5Ac(a2-3)Gal(b1-4)GlcNAc(b1-4)Man(a1-6)]Man(b1-4)GlcNAc(b1-4)GlcNAc
# Summary of the method: as §1
# [14] = target: Neu5Ac(a2-3)Gal(b1-4)GlcNAc(b1-2)[Neu5Ac(a2-3)Gal(b1-4)GlcNAc(b1-6)]Man(a1-6)[Neu5Ac(a2-3)Gal(b1-4)GlcNAc(b1-2)Man(a1-3)]Man(b1-4)GlcNAc(b1-4)GlcNAc
# Summary of the method: as §1
# [15] = target: Neu5Ac(a2-3)Gal(b1-4)GlcNAc(b1-2)[Neu5Ac(a2-3)Gal(b1-4)GlcNAc(b1-6)]Man(a1-6)[Neu5Ac(a2-3)Gal(b1-4)GlcNAc(b1-2)Man(a1-3)][GlcNAc(b1-4)]Man(b1-4)GlcNAc(b1-4)GlcNAc
# Summary of the method: as §1
# [16] = target: Neu5Ac(a2-3)Gal(b1-4)GlcNAc(b1-3)Gal
# Summary of the method: as §1
# [17] = target: Neu5Ac(a2-3)Gal(b1-4)GlcNAc(b1-3)Gal(b1-3)GlcNAc
# Summary of the method: as §1
# [18] = target: Neu5Ac(a2-3)Gal(b1-4)GlcNAc(b1-3)Gal(b1-4)GlcNAc
# Summary of the method: as §1
# [19] = target: Neu5Ac(a2-3)Gal(b1-4)GlcNAc(b1-3)Gal(b1-4)GlcNAc(b1-2)Man(a1-3)[Neu5Ac(a2-3)Gal(b1-4)GlcNAc(b1-3)Gal(b1-4)GlcNAc(b1-2)Man(a1-6)]Man(b1-4)GlcNAc(b1-4)GlcNAc
# Summary of the method: as §1
# [20] = target: Neu5Ac(a2-3)Gal(b1-4)GlcNAc(b1-3)Gal(b1-4)GlcNAc(b1-3)Gal(b1-4)GlcNAc
# Summary of the method: as §1
# [21] = target: Neu5Ac(a2-3)Gal(b1-4)GlcNAc(b1-3)Gal(b1-4)GlcNAc(b1-3)Gal(b1-4)GlcNAc(b1-2)Man(a1-3)[Neu5Ac(a2-3)Gal(b1-4)GlcNAc(b1-3)Gal(b1-4)GlcNAc(b1-3)Gal(b1-4)GlcNAc(b1-2)Man(a1-6)]GalNAc
# Summary of the method: as §1
# [22] = target: Neu5Ac(a2-3)Gal(b1-4)GlcNAc(b1-3)Gal(b1-4)GlcNAc(b1-3)GalNAc
# Summary of the method: as §1
# [23] = target: Neu5Ac(a2-3)Gal(b1-4)GlcNAc(b1-3)Gal(b1-4)GlcNAc(b1-3)[Neu5Ac(a2-3)Gal(b1-4)GlcNAc(b1-3)Gal(b1-4)GlcNAc(b1-6)]GalNAc
# Summary of the method: as §1
# [24] = target: Neu5Ac(a2-3)Gal(b1-4)GlcNAc(b1-3)Gal(b1-4)GlcNAc(b1-6)[Gal(b1-3)]GalNAc
# Summary of the method: as §1
# [25] = target: Neu5Ac(a2-3)Gal(b1-4)GlcNAc(b1-3)Gal(b1-4)[Fuc(a1-3)]GlcNAc
# Summary of the method: as §1
# [26] = target: Neu5Ac(a2-3)Gal(b1-4)GlcNAc(b1-3)GalNAc
# Summary of the method: as §1
# [27] = target: Neu5Ac(a2-3)Gal(b1-4)GlcNAc(b1-3)[Neu5Ac(a2-3)Gal(b1-4)GlcNAc(b1-6)]GalNAc
# Summary of the method: as §1
# [28] = target: Neu5Ac(a2-3)Gal(b1-4)GlcNAc(b1-6)GalNAc
# Summary of the method: as §1
# [29] = target: Neu5Ac(a2-3)Gal(b1-4)GlcNAc(b1-6)[Gal(b1-3)]GalNAc
# Summary of the method: as §1
# [30] = target: Neu5Ac(a2-3)Gal(b1-4)GlcNAc(b1-6)[Neu5Ac(a2-3)Gal(b1-3)]GalNAc
# Summary of the method: as §1
# [31] = target: Neu5Ac(a2-3)Gal(b1-4)GlcNAc6S
# Summary of the method: as §1
# [32] = target: Neu5Ac(a2-3)Gal(b1-4)[Fuc(a1-3)]GlcNAc
# Summary of the method: as §1
# [33] = target: Neu5Ac(a2-3)Gal(b1-4)[Fuc(a1-3)]GlcNAc(b1-2)Man
# Summary of the method: as §1
# [34] = target: Neu5Ac(a2-3)Gal(b1-4)[Fuc(a1-3)]GlcNAc(b1-3)Gal
# Summary of the method: as §1
# [35] = target: Neu5Ac(a2-3)Gal(b1-4)[Fuc(a1-3)]GlcNAc(b1-3)Gal(b1-4)GlcNAc
# Summary of the method: as §1
# [36] = target: Neu5Ac(a2-3)Gal(b1-4)[Fuc(a1-3)]GlcNAc(b1-3)Gal(b1-4)[Fuc(a1-3)]GlcNAc(b1-3)Gal(b1-4)[Fuc(a1-3)]GlcNAc
# Summary of the method: as §1
# [37] = target: Neu5Ac(a2-3)Gal(b1-4)[Fuc(a1-3)]GlcNAc(b1-3)GalNAc
# Summary of the method: as §1
# [38] = target: Neu5Ac(a2-3)Gal(b1-4)[Fuc(a1-3)]GlcNAc(b1-6)[Gal(b1-3)]GalNAc
# Summary of the method: as §1
# [39] = target: Neu5Ac(a2-3)Gal(b1-4)[Fuc(a1-3)]GlcNAc(b1-6)[Neu5Ac(a2-3)Gal(b1-3)]GalNAc
# Summary of the method: as §1
# [40] = target: Neu5Ac(a2-3)Gal(b1-4)[Fuc(a1-3)]GlcNAc6S
# Summary of the method: as §1
# [41] = target: Neu5Ac(a2-3)Gal6S(b1-4)GlcNAc
# Summary of the method: as §1
# [42] = target: Neu5Ac(a2-3)Gal6S(b1-4)[Fuc(a1-3)]GlcNAc
# Summary of the method: as §1
# [43] = target: Neu5Ac(a2-3)GalNAc
# Summary of the method: as §1
# [44] = target: Neu5Ac(a2-3)GalNAc(b1-4)GlcNAc
# Summary of the method: as §1
# [45] = target: Neu5Ac(a2-3)[GalNAc(b1-4)]Gal(b1-4)Glc
# Summary of the method: as §1
binder,measurement,setting,value
B1,glycan array binding signal (z-score),[1],-0.179
same,glycan array binding signal (z-score),[2],-0.144
same,glycan array binding signal (z-score),[3],-0.162
same,glycan array binding signal (z-score),[4],-0.446
same,glycan array binding signal (z-score),[5],-0.124
same,glycan array binding signal (z-score),[6],-0.241
same,glycan array binding signal (z-score),[7],-0.196
same,glycan array binding signal (z-score),[8],-0.309
same,glycan array binding signal (z-score),[9],0.029
same,glycan array binding signal (z-score),[10],-0.101
same,glycan array binding signal (z-score),[11],-0.256
same,glycan array binding signal (z-score),[12],-0.432
same,glycan array binding signal (z-score),[13],-0.125
same,glycan array binding signal (z-score),[14],-0.494
same,glycan array binding signal (z-score),[15],-0.118
same,glycan array binding signal (z-score),[16],-0.375
same,glycan array binding signal (z-score),[17],0.02
same,glycan array binding signal (z-score),[18],-0.172
same,glycan array binding signal (z-score),[19],0.783
same,glycan array binding signal (z-score),[20],-0.183
same,glycan array binding signal (z-score),[21],3.51
same,glycan array binding signal (z-score),[22],-0.357
same,glycan array binding signal (z-score),[23],-0.296
same,glycan array binding signal (z-score),[24],0.183
same,glycan array binding signal (z-score),[25],-0.152
same,glycan array binding signal (z-score),[26],-0.231
same,glycan array binding signal (z-score),[27],-0.202
same,glycan array binding signal (z-score),[28],-0.331
same,glycan array binding signal (z-score),[29],-0.206
same,glycan array binding signal (z-score),[30],-0.306
same,glycan array binding signal (z-score),[31],-0.265
same,glycan array binding signal (z-score),[32],-0.18
same,glycan array binding signal (z-score),[33],-0.157
same,glycan array binding signal (z-score),[34],-0.317
same,glycan array binding signal (z-score),[35],-0.165
same,glycan array binding signal (z-score),[36],-0.208
same,glycan array binding signal (z-score),[37],-0.087
same,glycan array binding signal (z-score),[38],-0.036
same,glycan array binding signal (z-score),[39],-0.056
same,glycan array binding signal (z-score),[40],-0.247
same,glycan array binding signal (z-score),[41],-0.107
same,glycan array binding signal (z-score),[42],-0.256
same,glycan array binding signal (z-score),[43],-0.294
same,glycan array binding signal (z-score),[44],-0.234
same,glycan array binding signal (z-score),[45],-0.246
